Screen size: about 110,000 compounds; about 230 (0.21%) showed an effect of 50% or more. The list shows a part of the results.
biological target: DPAP1 (Plasmodium falciparum, UniProt Q8IIJ9); assay: primary screen, percent inhibition; read by cleavage of a fluorogenic dipeptide substrate; higher = more effect of the substance; set-up: species or system P. falciparum D10 trophozoite lysates; single well
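Further: 30 min substrate incubation versus DMSO and 10 µM JCP410 controls.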

DPAP1, sequence (Q8IIJ9 whole entry, looked up): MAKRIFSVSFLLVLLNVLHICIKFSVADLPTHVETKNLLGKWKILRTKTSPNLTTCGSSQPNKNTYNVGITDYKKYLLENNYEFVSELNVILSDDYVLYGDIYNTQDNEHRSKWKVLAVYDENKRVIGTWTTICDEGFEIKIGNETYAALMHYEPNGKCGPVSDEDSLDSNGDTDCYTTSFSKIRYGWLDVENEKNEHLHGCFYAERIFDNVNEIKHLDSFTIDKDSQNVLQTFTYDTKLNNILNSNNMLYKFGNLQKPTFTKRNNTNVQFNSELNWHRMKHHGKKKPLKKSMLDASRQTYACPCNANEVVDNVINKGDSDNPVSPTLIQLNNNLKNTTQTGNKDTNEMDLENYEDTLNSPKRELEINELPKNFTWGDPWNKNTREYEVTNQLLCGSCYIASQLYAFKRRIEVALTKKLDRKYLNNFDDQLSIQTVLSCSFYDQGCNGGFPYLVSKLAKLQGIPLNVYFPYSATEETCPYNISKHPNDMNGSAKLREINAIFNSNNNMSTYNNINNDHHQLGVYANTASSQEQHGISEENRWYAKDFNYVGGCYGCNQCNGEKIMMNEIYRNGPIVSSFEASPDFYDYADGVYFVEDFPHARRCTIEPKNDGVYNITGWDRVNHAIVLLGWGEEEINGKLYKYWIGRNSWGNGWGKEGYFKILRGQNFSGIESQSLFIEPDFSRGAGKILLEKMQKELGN

SMILES	% Inhibition @ 10 uM
N#CCNC(=O)C1CCCCN1c1cccc(-c2cccc(N3CCC(N4CCOCC4)CC3)c2)c1 (centres unmarked)	-4.72%
CCc1nn(CC(=O)N2CCC(Cc3ccccc3)CC2)c(=O)c2cc3sccc3n12	3.4%
CC(C(NC(=O)OCc1ccccc1)C(=O)NCC#N)C(F)(F)F (centres unmarked)	-8.82%
Cn1cc(NC(=O)NCc2cccnc2)c2ccccc2c1=O	2.25%
O=C1C=C(NCCN2CCOCC2)CC(c2ccccc2)C1 (centres unmarked)	1.26%
CCN(CC)C(=O)C1CCCN(Cc2ccc3ccccc3c2)C1 (centres unmarked)	-0.0404%
CN(C)CCNC(=O)c1cc2ccccc2[nH]1	-9.34%
Cc1[nH]c2ccccc2c1C(=O)C(=O)N1CC2CC(C1)c1cccc(=O)n1C2 (centres unmarked)	-3.44%
Cc1nc2nc(-c3ccc(Cl)cc3Cl)nn2c(C)c1CCC(=O)N1CCCC1	-0.72%
CC(Oc1ccccc1)C(=O)NC1CCCCC1 (centres unmarked)	5.66%
CCOc1cc(C(=O)Nc2nn3c(C)nnc3s2)cc(OCC)c1OCC	-5.66%
O=C(NC(Nc1ccc(Br)cc1)C(=O)c1ccccc1)c1ccccc1 (centres unmarked)	4.89%
N=C1/C(=C\c2ccc(OCc3ccc4c(c3)OCO4)cc2)C(=O)N=C2SC(N3CCCC3)=NN12	-3.44%
Cc1ccc(-n2c(SCCC(=O)O)nc3c(cnn3-c3ccccc3)c2=O)cc1	1.43%
Cc1c(C(=O)O)[nH]c2c1C(=O)CC(c1ccccc1Cl)C2 (centres unmarked)	-3.21%
CCOC(=O)Nc1cc(C2CC2)nc2ccc(Br)cc12	-5.11%
O=C(NCc1ccccn1)C1CCN(Cc2cnn(-c3ccccc3)c2-n2cccc2)CC1	5.42%
CCn1cc(/C=C(\NC(=O)c2ccco2)C(=O)NCCCn2ccnc2)c2ccccc21	-1.74%
Cc1ccc(Cl)cc1-n1ncc2c(NCC3CCCO3)ncnc21 (centres unmarked)	6.29%
CCOc1cc2c(cc1OCC)C1C(C(=O)NCCN3CCOCC3)c3ccccc3C(=O)N1CC2 (centres unmarked)	-4.03%
CCOc1ccccc1CN1CCN(c2ccc([N+](=O)[O-])cc2)CC1	-3.72%
N#CCCN(Cc1ccccc1)C(CO)CC(=O)NCc1ccccc1 (centres unmarked)	-0.415%

SMILES	% Inhibition @ 10 uM
O=[N+]([O-])c1ccc(N2CCCC2)c(OCCO)c1	-0.546%
CN(C)CC(=O)Nc1c2c(nc3c1CCC3)CCCC2	-2.8%
COc1cccc(C(=O)Nc2c(-c3ccc(F)cc3)nc3ccccn23)c1OC	-4.23%
Brc1ccc(CN2CCCCCC2)o1	-0.261%
O=c1c(NCCCc2ccccc2)c(-c2ccccc2)c1=O	-1.69%
C=CCNC(=O)Nc1cnc2c(C)cccc2c1O	5.2%
CC1CCc2c(nc3ccccc3c2C(=O)O)C1 (centres unmarked)	-2.98%
COc1cc(CN2CCC(O)CC2)cc2c1OCO2	5.03%
CN1CC[C@@]2(O)CCCC[C@@H]2[C@H]1c1ccc(Cl)c(Cl)c1	4.26%
Fc1ccccc1N1CCN(CC2CCCCC2)CC1	-0.446%
O=C(C1=C(O)C(=O)N(CCN2CCNCC2)C1c1ccccc1)c1ccccc1 (centres unmarked)	2.69%
N#CCNC(=O)[C@H](Cc1cc(Cl)c(O)c(Cl)c1)NC(=O)c1cc(F)cc(F)c1	-4.72%
Cc1ccc(OCC(=O)Nc2cccc3cccnc23)cc1	-1.61%
COc1ccc(OCC(NS(=O)(=O)c2ccc(-n3cnnn3)cc2)C(C)C)cc1 (centres unmarked)	3.88%
O=S(=O)(Nc1ccc2c(c1)OCCO2)c1ccccc1	4.31%
COC(=O)c1c(NC(=O)COc2ccccc2C(C)(C)C)sc2c1CCCC2	-2.6%
C#CC(C)(CC)NC(=O)Cn1nnc(-c2ccc(OC)cc2)n1 (centres unmarked)	-2.19%
NC(=O)C1CCCN(Cc2ccc(Cl)c(Cl)c2)C1 (centres unmarked)	-4.75%
NS(=O)(=O)c1ccc(CCNC(=O)C2CCN(S(=O)(=O)c3cccs3)CC2)cc1	4.5%
COc1ccc(C(C)(C)C)cc1NC(=O)c1ccc(C)s1	7.55%
CCOC(=O)N1CCN(C(=O)COCc2cc(-c3cccs3)on2)CC1	-1.04%
Cc1ccc(C2CC(C(F)(F)F)n3nc(C(=O)NCc4cn(C)nc4C)cc3N2)cc1 (centres unmarked)	3.94%

SMILES	% Inhibition @ 10 uM
COc1cccc(OC)c1C(=O)Nc1ccc(C)c(C)c1	1.83%
COc1ccc(S(=O)(=O)/N=C2\C=C(Br)C(=O)c3ccccc32)cc1	5.12%
Sc1nc2ccccc2c2nc(COc3ccc(Cl)cc3)nn12	1.41%
CCOC(=O)c1oc2cccc(O)c2c1CN(Cc1ccccc1)C(C)=O	5%
CCOC(=O)C1=C(O)/C(=C\c2ccc(OCC(=O)NC(C)c3ccccc3)cc2)N=C1C (centres unmarked)	0.131%
COCCNC(=O)Cn1cc2c(n1)CCCCC2	0.137%
COCCNC(=O)c1c(NC(=O)c2ccc(Cl)cc2Cl)sc2c1CCCC2	2.49%
COc1ccc(COC(=O)C2=C(C)NC(=O)NC2c2ccc3c(c2)OCO3)cc1 (centres unmarked)	-6.46%
O=C(COc1ccccc1)Nc1cccnc1	-4.86%
CC(=O)Nc1ccc(S(=O)(=O)Nc2ccccc2C(=O)Nc2ccccc2)cc1	-1.59%
O=C(/C=C/c1ccnc2ccccc12)c1cccs1	-0.339%
COc1cc(C2C(C#N)=C(N)OC3=C2C(=O)CC(C)(C)C3)ccc1O (centres unmarked)	1.13%
Cc1ccc(CNC(=O)C2CCN(S(=O)(=O)c3ccc(Br)s3)CC2)cc1	-7.27%
CCOc1ccc(S(=O)(=O)N(CC(=O)Nc2cccc(Br)c2)c2ccccc2)cc1	-2.38%
COc1ccc2nc(NS(=O)(=O)c3ccccc3)sc2c1	17.6%
CCOC(=O)N1CCC(NC(=O)C2CCCN(C(=O)c3cc4sccc4n3C)C2)CC1 (centres unmarked)	-8.2%
COC(=O)c1cc(-c2ccccc2)sc1NC(=O)CSc1nnc2ccccn12	-3.41%
O=C(COc1ccccc1)N(Cc1cccs1)C1CCS(=O)(=O)C1 (centres unmarked)	2.1%
N#Cc1cc(-c2ccccc2)nn1-c1ccccc1	-2.18%
O=C(NC1CC1)c1cc(-c2ccccc2)[nH]n1	-3.1%
Cc1ccccc1N1C(=O)C2C3CCC(O3)C2C1=O (centres unmarked)	1.72%
